# The supplement of paper PMC8728848
# The list shows a part of the results.
# Columns and labels:
# Experiment in all cases: glycan array binding signal (z-score within array); higher = stronger binding
# Conditions in all cases: glycan notation: IUPAC condensed, linker removed
# GlcNAc(b1-3)Man = target: GlcNAc(b1-3)Man
# In short: (§1)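 Negative Z-scores can be read as non-binding. The Z-score is calculated within each array and then averaged across arrays of one protein sequence at different concentrations or buffers and across linkers. Arrays, 3228 in all, were curated from the Consortium for Functional Glycomics database and kept only where the protein sequence was available.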
# [1] = target: GlcNAc(b1-3)[GlcNAc(b1-4)][GlcNAc(b1-6)]GlcNAc
# In short: as §1
# [2] = target: GlcNAc(b1-3)[GlcNAc(b1-6)]Gal(b1-4)GlcNAc
# In short: as §1
# [3] = target: GlcNAc(b1-3)[GlcNAc(b1-6)]GalNAc
# In short: as §1
# [4] = target: GlcNAc(b1-4)Gal(b1-4)GlcNAc
# In short: as §1
# GlcNAc(b1-4)GlcNAc = target: GlcNAc(b1-4)GlcNAc
# In short: as §1
# [5] = target: GlcNAc(b1-4)GlcNAc(b1-4)GlcNAc
# In short: as §1
# [6] = target: GlcNAc(b1-4)GlcNAc(b1-4)GlcNAc(b1-4)GlcNAc(b1-4)GlcNAc
# In short: as §1
# [7] = target: GlcNAc(b1-4)GlcNAc(b1-4)GlcNAc(b1-4)GlcNAc(b1-4)GlcNAc(b1-4)GlcNAc
# In short: as §1
# [8] = target: GlcNAc(b1-4)[GlcNAc(b1-6)]GalNAc
# In short: as §1
# [9] = target: GlcNAc(b1-6)Gal(b1-4)GlcNAc
# In short: as §1
# GlcNAc(b1-6)GalNAc = target: GlcNAc(b1-6)GalNAc
# In short: as §1
# [10] = target: GlcNAc6S(b1-3)Gal(b1-4)GlcNAc
# In short: as §1
# Kdn(a2-3)Gal(b1-3)GalNAc = target: Kdn(a2-3)Gal(b1-3)GalNAc
# In short: as §1
# Kdn(a2-3)Gal(b1-3)GlcNAc = target: Kdn(a2-3)Gal(b1-3)GlcNAc
# In short: as §1
# Kdn(a2-3)Gal(b1-4)Glc = target: Kdn(a2-3)Gal(b1-4)Glc
# In short: as §1
# Kdn(a2-3)Gal(b1-4)GlcNAc = target: Kdn(a2-3)Gal(b1-4)GlcNAc
# In short: as §1
# [11] = target: Kdn(a2-3)Gal(b1-4)[Fuc(a1-3)]GlcNAc
# In short: as §1
# Kdn(a2-6)Gal(b1-4)GlcNAc = target: Kdn(a2-6)Gal(b1-4)GlcNAc
# In short: as §1
# [12] = target: Man(a1-2)Man(a1-2)Man(a1-3)Man
# In short: as §1
# [13] = target: Man(a1-2)Man(a1-2)Man(a1-6)[Man(a1-3)]Man
# In short: as §1
# Man(a1-2)Man(a1-3)Man = target: Man(a1-2)Man(a1-3)Man
# In short: as §1
# [14] = target: Man(a1-2)Man(a1-3)[Man(a1-2)Man(a1-6)]Man
# In short: as §1
binder,measurement,setting,value
rEtpA (Escherichia coli) (protein) MNRIYKLKFDKRRNELVVVSEITTGVGNAKATGSVEGEKSPRRGVRAMALSLLSGMMIMAHPAMSANLPTGGQIVAGSGSIQTPSGNQMNIHQNSQNMVANWNSFDIGKGNTVQFDQPSSSAVALNRVVGGGESQIMGNLKANGQVFLVNPNGVLFGEGASVSTSGFVASTRDIKNDDFMNRRYTFSGGQKAGAAIVNQGELTTNAGGYIVLAADRVSNSGTIRTPGGKTVLAASERITLQLDNGGLMSVQVTGDVVNALVENRGLVSARDGQVYLTALGRGMLMNTVLNVSGVVEASGMHRQDGNIVLDGGDSGVVHLSGTLQADNASGQGGKVVVQGKNILLDKGSNITATGGQGGGEVYVGGGWQGKDSNIRNADKVVMQGGARIDVSATQQGNGGTAVLWSDSYTNFHGQISAKGGETGGNGGRVETSSHGNLQAFGTVSASAKKGKAGNWLLDSADITIVNGSNVSKTETTQSPPHTQFAPTAAGSAVSNTSINNRLNNGTSVTILTHRTRTGTAQGGNITVNAAINKSNGSDVNLTLQAGGNITVNNSITSTEGKLNVNLSGARTSNGSITISNNANITTNGGDITVGTTNTSNRVNISINNTTLNASNGNIQLTGTGTDSGILFAGNNRLTASNIALTGNSTSGNAINLTGTATLNATNNITLTGSSTSGNAINLKGNNTLTASNITLTGESTSGNAINLTDTTGTTTLNATNNITMQGTRVQIKHSNITAGNFALNATVAGSEISNTTLTATNNINLAAKTNSASSGVYLKDARITSTNGSITANGTATANGKATHLDGNVTLNASNGRIKLTGNGHGSASGILFAGNNRLTASNIALTGNSTSGNAINLTGTATLNATNDITLTGSSTSGNAINLTGTATLNATNNITLTGSSTSGNAINLKGNNTLTASNITLTGESTSGNAINLTDTTGTTTLNATNNITMQGTRVQIKHSNITAGNFALNATVAGSEISNTTLTATNNINLAAKTNSASSGVYLKDARITSTNGSITANGTATANGKATHLDGNVTLNASNGRIKLTGNGHGSASGILFAGNNRLTASNIALTGNSTSGNAINLTGTATLNATNDITLTGSSTSGNAINLTGTATLNATNNITLTGSSTSGNAINLKGNNTLTASNITLTGESTSGNAINLTDTTGTTTLNATNNITMQGTRVQIKHSNITAGNFALNATVAGSEISNTTLTATNNINLAAKTNSASSGVYLKDARITSTNGSITANGTATANGKATHLDGNVTLNASNGRIKLTGNGHGSASGILFAGNNRLTASNIALTGNSTSGNAINLTGTATLNATNDITLTGSSTSGNAINLTGTATLNATNNITLTGSSTSGNAINLKGNNTLTASNITLTGESTSGNAINLTDTTGTTTLNATNNITMQGTRVQIKHSNITAGNFALNATVAGSEISNTTLTATNNINLAAKTNSASSGVYLKDARITSTNGSITTNGTATANGKATHLDGNVTLNASNGRIKLTGNGHGSASGILFAGNNRLTASNIALTGNSTSGNAINLTGTATLNATNDITLTGSSTSGNAINLTGTATLNATNNITLTGSSTSGNAINLKGNNTLTASNITLTGESTSGNAINLTDTTGTTTLNATNNITMQGTRVQIKHSNITAGNFALNATVAGSEISNTTLTATNNINLAAKTNSASSGVYLKDARITSTNGSITANGTAPANDNATYLDGNVTLNASNGSIKLTGNGNGSTSGILFAGNNTLTASNITLTGNSEVYWQKLGPEQKLISEEDLNSAVDHHHHHH,glycan array binding signal (z-score),GlcNAc(b1-3)Man,0.178
same,glycan array binding signal (z-score),[1],-0.422
same,glycan array binding signal (z-score),[2],-0.354
same,glycan array binding signal (z-score),[3],-0.216
same,glycan array binding signal (z-score),[4],-0.316
same,glycan array binding signal (z-score),GlcNAc(b1-4)GlcNAc,-0.234
same,glycan array binding signal (z-score),[5],-0.465
same,glycan array binding signal (z-score),[6],-0.384
same,glycan array binding signal (z-score),[7],-0.413
same,glycan array binding signal (z-score),[8],-0.087
same,glycan array binding signal (z-score),[9],-0.395
same,glycan array binding signal (z-score),GlcNAc(b1-6)GalNAc,0.051
same,glycan array binding signal (z-score),[10],-0.312
same,glycan array binding signal (z-score),Kdn(a2-3)Gal(b1-3)GalNAc,-0.023
same,glycan array binding signal (z-score),Kdn(a2-3)Gal(b1-3)GlcNAc,0.581
same,glycan array binding signal (z-score),Kdn(a2-3)Gal(b1-4)Glc,0.314
same,glycan array binding signal (z-score),Kdn(a2-3)Gal(b1-4)GlcNAc,-0.304
same,glycan array binding signal (z-score),[11],-0.003
same,glycan array binding signal (z-score),Kdn(a2-6)Gal(b1-4)GlcNAc,0.133
same,glycan array binding signal (z-score),[12],-0.195
same,glycan array binding signal (z-score),[13],-0.236
same,glycan array binding signal (z-score),Man(a1-2)Man(a1-3)Man,-0.211
same,glycan array binding signal (z-score),[14],-0.349
